# Screen size: about 52,000 compounds; about 1,700 (3.3%) were called active. Cut-off read from the data, not from the text of the source: active = survival mostly below about 52% (no sharp cut-off); inactive = mostly above about 56%. The list shows a part of the results.
# System: Wild type
# Experiment: S. aureus survival, RN4220 and DeltatarO strains – OD600, teichoic acid synthesis inhibitors, primary screen (AID 463173)
# Settings: S. aureus RN4220 wild type/DeltatarO growth, OD600, 18 h, hits give low values, screened at 18.75 µg/mL (by protocol)
row,SMILES,survival
1,c1ccc(N(c2ccccc2)c2nc(-n3nnc4ccccc43)nc(-n3nnc4ccccc43)n2)cc1,inactive: 103%
2,CC1CCN(c2nn3c(=O)c(C(=O)NCCc4ccc(Cl)cc4)cnc3s2)CC1,inactive: 66%
3,COc1ccc2oc(=O)cc(CN3CCN(C(=O)c4ccccc4Br)CC3)c2c1,inactive: 72%
4,COc1ccccc1/C=N\NC(N)=S,inactive: 109%
5,O=c1[nH]c2ccc(NS(=O)(=O)c3ccc(F)cc3)cc2s1,inactive: 71%
6,CCOc1ccc2nc(N3CCN(C(=O)C(C)C)CC3)sc2c1,inactive: 72%
7,Brc1ccc(-c2nc(N3CCN(c4ccccc4)CC3)c3ccccc3n2)cc1,inactive: 127%
8,Cn1nnnc1SCCCNCc1ccc(-c2cccc(Cl)c2)o1,inactive: 105%
9,O=c1cc2nc(-c3ccccc3F)nc(SCc3ccc(Br)cc3)n2[nH]1,active: -2%
10,Cc1cccc(Cn2c(SCc3ccc(C(=O)NCc4cccs4)cc3)nc3cccnc32)c1,inactive: 79%
11,Cc1ccccc1-n1c2nc(=O)[nH]c(=O)c-2cc2c(Cl)cccc21,inactive: 85%
12,COc1ccc(NC(=O)CSc2nnc(-c3nonc3NC(C)=O)n2C)cc1Cl,inactive: 95%
13,CCN(CC)CCCNC(=O)C(C)n1nc(C)n2c(cc3occc32)c1=O (stereo not given),inactive: 83%
14,Cc1c(Cl)cccc1NC(=O)CCn1cnnn1,inactive: 68%
15,COc1ccc(Cl)cc1NC(=O)COC(=O)CC(C)(C)CC1=NS(=O)(=O)c2ccccc2N1,inactive: 81%
16,COC(=O)c1cc(C)nc2c1c(=O)nc(SCc1cccc(C(F)(F)F)c1)n2C1CC1,inactive: 91%
17,COCCCN1C(=O)c2[nH]nc(-c3ccccc3O)c2C1c1ccc(OC)cc1 (stereo not given),inactive: 85%
18,CC(C)c1ccc(NC(=O)c2cc(S(=O)(=O)NC3CCCCC3)ccc2F)cc1,inactive: 81%
19,O=C(C1CCC(CNS(=O)(=O)c2cccs2)CC1)N1CCN(c2ccc(Cl)cc2)CC1 (stereo not given),inactive: 47%
20,COC(=O)c1ccccc1NC(=O)CN(c1ccc(Cl)cc1)S(=O)(=O)c1ccc(OC)cc1,inactive: 84%
21,COc1ccc(CCNC(=O)Cn2c(=O)nc(-c3ccccc3F)c3cc(Cl)ccc32)cc1OC,inactive: 90%
22,Cc1ccc2[nH]c(CSc3nnc(C)s3)cc(=O)c2c1,inactive: 71%
23,Cc1cc(N)c(O)cc1C,inactive: 94%
24,CCOc1ccccc1NC(=O)C1CCN(S(=O)(=O)c2cccc3nonc23)CC1,inactive: 76%
25,NC(=O)C1CCN(C(=O)C2CCN(S(=O)(=O)c3ccc(-n4cnnn4)cc3)CC2)CC1,inactive: 112%

# — PubChem BioAssay AID463173 (ICCB-Longwood Screening Facility, Harvard Medical School, 2010)
